B1: Janus #3 (other)
light: QSALTQPASVSGSPGQSITISCTGTSSDVGGYNYVSWYQQHPGKAPKLMIYDVSNRPSGVSNRFSGSKSGNTASLTISGLQAEDEADYYCSSYTSSSTRVFGTGTKVTVLGQPKANPTVTLFPPSSEELQANKATLVCLISDFYPGAVTVAWKADGSPVKAGVETTKPSKQSNNKYAASSYLSLTPEQWKSHRSYSCQVTHEGSTVEKTVAPTECS
heavy: EVQLLESGGGLVQPGGSLRLSCAASGFTFSSYIMMWVRQAPGKGLEWVSSIYPSGGITFYADTVKGRFTISRDNSKNTLYLQMNSLRAEDTAVYYCARIKLGTVTTVDYWGQGTLVTVSSASTKGPSVFPLAPSSKSTSGGTAALGCLVKDYFPEPVTVSWNSGALTSGVHTFPAVLQSSGLYSLSSVVTVPSSSLGTQTYICNVNHKPSNTKVDKKV[human IgG1 Fc with T366Y (EU numbers) not given here]
chain: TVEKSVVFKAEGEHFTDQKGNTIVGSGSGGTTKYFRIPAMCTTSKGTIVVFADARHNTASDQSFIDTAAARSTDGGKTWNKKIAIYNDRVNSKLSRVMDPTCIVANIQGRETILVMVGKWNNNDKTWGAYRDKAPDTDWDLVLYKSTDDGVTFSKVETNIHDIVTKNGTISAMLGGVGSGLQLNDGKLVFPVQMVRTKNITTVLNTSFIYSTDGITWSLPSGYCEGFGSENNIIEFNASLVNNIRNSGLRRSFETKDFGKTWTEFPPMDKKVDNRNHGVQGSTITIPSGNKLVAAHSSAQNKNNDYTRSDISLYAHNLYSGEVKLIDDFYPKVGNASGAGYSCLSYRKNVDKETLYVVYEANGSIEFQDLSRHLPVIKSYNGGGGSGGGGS[human IgG1 Fc with Y407T (EU numbers) not given here]SGGGGSHHHHHHHH
B2: Bunk #2 (other)
light: QSALTQPASVSGSPGQSITISCTGTSSDVGGYNYVSWYQQHPGKAPKLMIYDVSNRPSGVSNRFSGSKSGNTASLTISGLQAEDEADYYCSSYTSSSTRVFGTGTKVTVLGQPKANPTVTLFPPSSEELQANKATLVCLISDFYPGAVTVAWKADGSPVKAGVETTKPSKQSNNKYAASSYLSLTPEQWKSHRSYSCQVTHEGSTVEKTVAPTECS
heavy: EVQLLESGGGLVQPGGSLRLSCAASGFTFSSYIMMWVRQAPGKGLEWVSSIYPSGGITFYADTVKGRFTISRDNSKNTLYLQMNSLRAEDTAVYYCARIKLGTVTTVDYWGQGTLVTVSSASTKGPSVFPLAPSSKSTSGGTAALGCLVKDYFPEPVTVSWNSGALTSGVHTFPAVLQSSGLYSLSSVVTVPSSSLGTQTYICNVNHKPSNTKVDKKV[human IgG1 Fc with T366Y (EU numbers) not given here]GGGGSGGGGSGGGGSQSALTQPASVSGSPGQSITISCTGTSSDVGGYNYVSWYQQHPGKAPKLMIYDVSNRPSGVSNRFSGSKSGNTASLTISGLQAEDEADYYCSSYTSSSTRVFGTGTKVTVLGQPKAGGGGSGGGGSGGGGSEVQLLESGGGLVQPGGSLRLSCAASGFTFSSYIMMWVRQAPGKGLEWVSSIYPSGGITFYADTVKGRFTISRDNSKNTLYLQMNSLRAEDTAVYYCARIKLGTVTTVDYWGQGTLVTVSS
chain: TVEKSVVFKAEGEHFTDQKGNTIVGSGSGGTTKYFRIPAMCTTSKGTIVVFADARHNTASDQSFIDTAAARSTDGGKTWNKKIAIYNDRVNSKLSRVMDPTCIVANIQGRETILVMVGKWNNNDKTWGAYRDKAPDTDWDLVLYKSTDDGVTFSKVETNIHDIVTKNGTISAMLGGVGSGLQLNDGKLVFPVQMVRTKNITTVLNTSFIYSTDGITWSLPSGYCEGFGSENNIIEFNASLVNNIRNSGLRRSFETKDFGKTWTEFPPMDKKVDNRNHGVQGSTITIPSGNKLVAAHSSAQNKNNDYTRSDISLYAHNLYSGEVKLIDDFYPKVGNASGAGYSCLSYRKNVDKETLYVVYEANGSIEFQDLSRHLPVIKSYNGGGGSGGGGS[human IgG1 Fc with Y407T (EU numbers) not given here]SGGGGSHHHHHHHH

Target: recombinant human PD-L1 (human)

| Binder | Kd [nM] | koff [s⁻¹] | kon [M⁻¹ s⁻¹] |
| --- | --- | --- | --- |
| B1 | 0.556 | 0.000188 | 358000 |
| B2 | 0.944 | 0.000273 | 324000 |
